Among all 48,000 compounds or so, about 1,200 (2.5%) were called active. Another 2% or so got no clear call; they are omitted.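 The calls were made as follows: active = activation of at least 60% and not above a set upper limit (about 1 call in 100 departs from these limits); inconclusive = activation of 40% to 60%, or above that upper limit; inactive = activation under 40%.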 Some of the results follow.
biological target: Probable G-protein coupled receptor 32 (Homo sapiens) (UniProt O75388); test: qHTS for Agonists of Human Resolvin D1 Receptor DRV1; settings: CHO-K1 GPR32 beta-arrestin PathHunter luminescence, 90 min; at 76.9 µM; stronger effect = higher value; zero percent set by DMSO-only wells; also: 0% is about no effect
Summary of the method: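 Agonism was scored as beta-arrestin recruitment to ProLink-fused GPR32 in stably transfected CHO-K1 cells, giving a chemiluminescent beta-Gal signal; compounds were incubated 90 min at 37 °C.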

UniProt O75388, sequence (O75388 whole entry, looked up, the tested form may be a part): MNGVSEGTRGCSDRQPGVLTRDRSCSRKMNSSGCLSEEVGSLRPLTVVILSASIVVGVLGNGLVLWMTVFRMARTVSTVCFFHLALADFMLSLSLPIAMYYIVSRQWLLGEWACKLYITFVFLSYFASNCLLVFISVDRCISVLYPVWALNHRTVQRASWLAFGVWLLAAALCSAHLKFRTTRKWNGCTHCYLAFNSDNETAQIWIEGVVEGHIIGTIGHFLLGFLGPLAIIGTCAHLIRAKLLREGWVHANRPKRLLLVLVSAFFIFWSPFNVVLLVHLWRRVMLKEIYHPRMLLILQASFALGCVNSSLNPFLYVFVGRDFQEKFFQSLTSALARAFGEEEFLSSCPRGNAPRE

activation, inactive:
COc1ccc(NC(=O)C2=CC(c3ccc4c(c3)OCO4)=NS(=O)(=O)N2C)cc1OC -6.29%
Cc1cccc(N2C(=O)C(CC(=O)Nc3cccc(F)c3)N(CCc3ccncc3)C2=O)c1 (configuration not stated) 15.2%
CCC(Sc1nc2ncccc2[nH]1)C(=O)Nc1ccccc1F (configuration not stated) -13%
COc1ccc2c(CNCc3cccs3)c(C(=O)O)n(Cc3ccccc3C)c2c1 -4.87%
COc1cc(OC)c(N(C)C(=O)c2cc3c(s2)-c2ccccc2OC3)cc1Cl -17.1%
O=C(OCC1CCCO1)c1ccc2c(c1)N(Cc1ccc(F)cc1)C(=O)c1ccccc1S2(=O)=O (configuration not stated) -41.7%
CCC(=O)NCc1nc2ccccc2n1Cc1ccccc1 -22.3%
Cc1ccc(Cl)cc1NC(=O)N1CCC(CN2CCc3ccccc3C2)CC1 -19.4%
Cc1ccc(S(=O)(=O)N2CCCc3cc(NC(=O)c4cccc(Cl)c4)ccc32)cc1 -11.7%
CCOc1cc(CNc2ccc(O)cc2)cc(Cl)c1OCc1ccccc1 -12.5%
CCCCOc1ccc(C(=O)Nc2ccc3c(c2)N(C(C)=O)CCC3)cc1 -19.2%
Cn1cccc1-c1cc2n(n1)CCC(=O)N2CC(=O)Nc1ccc(F)cc1Cl -3.45%
COCCCNc1nc2c(-c3cccc(Br)c3)nnn2c2ccccc12 -8.27%
COC(=O)c1ccc2c(=O)n(CCCCCC(=O)N3CCN(c4cccc(C)c4C)CC3)c(=O)[nH]c2c1 -29.8%
CCOC(=O)c1c(C)[nH]c(C)c1S(=O)(=O)N1CCC(C(=O)NCc2ccc(OC)cc2)CC1 -1.05%
Cc1c(NC(=O)Cc2ccccc2)cccc1-c1nc2cccnc2s1 -7.64%
Cn1nc(-c2ccccc2F)c2cc(C(=O)N3CCN(c4ccccc4F)CC3)sc21 10.4%
CCOc1ccc(NC(=O)c2cc3nc(-c4ccc(OC)cc4)cc(C(F)(F)F)n3n2)cc1 -3.91%
O=C(CSc1nc2c([nH]c3ccccc32)c(=O)n1-c1ccc(F)cc1)Nc1ccc2c(c1)OCCO2 -22.1%
CCS(=O)(=O)N1CCc2cc(C(=O)NCc3ccc(C)cc3)ccc21 -3.59%
CCC(Cn1nnc2ccccc2c1=O)NC(=O)Nc1ccccc1Cl (configuration not stated) 22.9%
Cc1cccc(-c2cc(-c3ccccc3)nc(SCC(=O)Nc3ccccc3)c2C#N)c1 -5.79%
Cc1ccccc1OCC(=O)Nc1ccc2nc(SCC(=O)N3CCOCC3)sc2c1 27.1%
O=C(CN1C(=O)C2(SCC(=O)N2c2ccc(F)c(F)c2)c2ccccc21)Nc1cccc(Cl)c1 (configuration not stated) 26.9%
CCOc1ccc(NC(=O)CCNS(=O)(=O)c2cccs2)cc1 -0.0091%
Cc1ccc(-c2nn(CCC(N)=O)c(=O)c3ccccc23)cc1 -1.7%
COc1ccc2c(C)c(CCC(=O)NCc3ccccc3Cl)c(=O)oc2c1C 9.2%
COc1c(C)cc(NS(=O)(=O)c2ccc3c(c2)OCCO3)cc1C 28.2%
COc1ccc(CNC(=O)C2CCN(C(=O)N3CCOc4ccc(Cl)cc43)CC2)cc1 -12.3%
Cc1cc(Nc2ccccc2O)nc(C)n1 -2.14%
COc1ccc(NC(=O)CCCN2C(=O)CCn3nc(-c4cn(C)c5ccccc45)cc32)cc1 1.27%
Cc1ccc(C)c(S(=O)(=O)n2nc(C)c(S(=O)(=O)N3CCCCCC3)c2C)c1 -9.05%
Cc1cccc(C)c1-n1ncc(C(=O)NCCN2CCN(C)CC2)c1C1CCN(C(=O)OC(C)(C)C)CC1 -5.2%
CCOC(=O)c1cnc2ccc(OC)cc2c1Nc1cccc(C(C)=O)c1 11.7%
CCOc1ccc(C(=O)NCc2nc(-c3ccc(Cl)cc3)no2)cc1OCC 2.01%
Cc1cccc(NC(=O)C2CCN(S(=O)(=O)c3c(C)noc3/C=C/c3ccco3)CC2)c1 -32.5%
CCN(Cc1ccccc1)S(=O)(=O)c1ccc(F)c(C(=O)Nc2cc(C)ccc2OC)c1 -0.681%
Cc1cc(N2CCN(c3cc(Cl)ccc3C)CC2)n2nc(-c3ccccc3)nc2n1 10.5%
Cc1cc(F)ccc1S(=O)(=O)Nc1cc2c(C(=O)O)c(C)oc2c2ccccc12 6.09%
COC(=O)c1cc2sccc2n1Cc1ccc(F)cc1Cl -13.5%
CCOC(=O)c1c(C)oc2ccc(N(C(C)=O)S(=O)(=O)c3c(C)cc(C)cc3C)cc12 3.85%
COc1ccc(OC)c(CC2C(=O)Nc3ccc(Br)cc32)c1 (configuration not stated) -19.1%
O=C(COc1ccc(F)cc1)Nc1ccc2nc(SCCOc3ccccc3)sc2c1 26.4%
N#Cc1ccc(NC(=O)C2Cc3ccccc3CN2S(=O)(=O)c2ccc(F)cc2)cc1 (configuration not stated) -13.2%
CCCCNC(=O)C1CCC(Cn2c(=O)c3sccc3n(CC(=O)Nc3ccccc3)c2=O)CC1 (configuration not stated) -3.89%
O=C(Nc1ccccc1C(=O)OCc1cc(=O)n2ccsc2n1)c1ccccc1Cl 3.56%
COCCn1c(=N)c(C(=O)NC2CCCC2)cc2c(=O)n3cc(C)ccc3nc21 -5.27%
CC(=O)N(CC(O)CO)c1c(I)c(C(=O)NCC(O)CO)c(I)c(C(=O)NCC(O)CO)c1I (configuration not stated) -16.9%
COc1ccc(Oc2nc3c(c(=O)n(C)c(=O)n3C)n2Cc2ccc(Cl)cc2Cl)cc1 -2.62%
O=C(NC1CCN(Cc2ccccc2)CC1)c1ccc(Cn2c(=O)c3ccccc3n(Cc3cccc(F)c3)c2=O)cc1 -3.75%
CCN(CC)CCNC(=O)c1cn(CC)c2ccc(S(=O)(=O)N3CCc4ccccc4C3)cc2c1=O 2.71%
CCC(=O)N1CCc2cc(Br)cc(S(=O)(=O)N3CCN(c4cc(C)ccc4C)CC3)c21 -3.6%
COc1cc(-c2cc3n(C)c(C)c(CCC(=O)NC4CCCCC4)c(=O)n3n2)cc(OC)c1OC -8.92%
Cc1cccc(C)c1NC(=O)CCC(=O)N1Cc2ccccc2Oc2ncccc21 -7.2%
CCC(=O)N1CCc2cc(Br)cc(S(=O)(=O)CCC(=O)Nc3ccc(Cl)cc3)c21 -10.4%
CCOC(=O)c1cc(-c2ccc(C)cc2)n(CCC(=O)NCCc2ccc(C)cc2)c1C 15.8%
O=C(Cc1ccc(NC(=O)N2CCSc3ncccc32)cc1)NCc1cccc(Cl)c1 -4.44%
O=C(Nc1cccc(OCc2cc(=O)n3ccccc3n2)c1)Nc1cccc(C(F)(F)F)c1 -5.36%
Cc1ccc(NC(=O)C2CCCN2S(=O)(=O)c2cccc3cccnc23)c(C)c1 (configuration not stated) -9.17%
Cc1cccc(C(=O)NCc2nc3ccccc3n2Cc2ccccc2Cl)c1 0.954%
CCOc1ccccc1CNC(=O)c1oc2c(c1C)-c1nn(Cc3cccc(Cl)c3)cc1CC2 -10.9%
Cc1ccc2c(=O)c(C(=O)c3ccc(Cl)cc3)cn(CC(=O)Nc3ccc4c(c3)OCCO4)c2n1 11.4%
CCOc1ccc(Cn2c(CNS(=O)(=O)c3ccc(C(C)(C)C)cc3)nc3cccnc32)cc1 -31.6%
CCOC(=O)c1c(C)n(-c2ccccc2)c2ccc(OC(=O)c3c(F)cccc3F)cc12 -6.98%
COc1cccc(NC(=O)Cn2c(=O)n(Cc3ccc(C(=O)NCc4ccc(C)cc4)cc3)c(=O)c3ccccc32)c1 -13.4%
COc1ccc(Cl)cc1C(=O)NCCS(=O)(=O)N1CCN(c2ccccc2OC)CC1 -16%
COc1ccc(CCNC(=O)C2c3ccccc3C(=O)N2Cc2ccccc2)cc1OC (configuration not stated) -4.33%
CCOc1ccc(CNC(=O)C2=Cc3cccc(OC)c3OC2)cc1 -7.49%
O=C(NCCc1csc2nc(-c3ccccc3F)nn12)C(=O)Nc1cc(F)ccc1F 29.5%
CCOC(=O)c1c(C)oc2ncnc(Nc3cc(C)cc(C)c3)c12 3.67%
COc1ccc(N(C(=O)c2ccc(C(C)(C)C)cc2)S(=O)(=O)c2ccc(Cl)cc2)cc1 -8.01%
COc1ccc(CNC(=O)c2cnn3c(C)c(Cc4c(F)cccc4Cl)c(C)nc23)cc1 -20.8%
Cc1ccc(N2CC(NC(=O)c3cccc(Cl)c3)CC2=O)cc1C (configuration not stated) -5.07%
CCN1C(=O)c2ccccc2Sc2ccc(NC(=O)Nc3cccc([N+](=O)[O-])c3C)cc21 -8.33%
CCC1=C(c2ccc(C)cc2)S(=O)(=O)N=C1N1CCC(C(=O)NCc2ccc(N(C)C)cc2)CC1 -17.9%
Cc1cccc(N2CCN(C(=O)c3cnc(N4CCCC4)nc3C)CC2)c1C 36.6%
COc1ccc(C2c3c(n(C)c4ccccc34)C(=O)N2CC(=O)Nc2cccc(Cl)c2C)cc1 (configuration not stated) -22%
COc1cc(O)cc(O)c1 -6.85%
COC(=O)c1c(NC(=O)/C(C#N)=C/c2ccccc2)sc2c1C(C(=O)OC)CC2 (configuration not stated) -2.69%
CCCCOc1ccc(C(=O)NCc2nnnn2-c2ccc(C)c(C)c2)cc1 -16.9%
CC1CCCN(C(=O)Cn2ncc3c([nH]c4ccccc43)c2=O)C1 (configuration not stated) 22.1%
CCc1ccccc1Nc1sc(C(=O)c2cccc(OC)c2)c(N)c1S(=O)(=O)c1ccccc1 -36.4%
